Experimental data from the supplement of paper PMC7826260.
Some of the results follow. Cleavage of a single-stranded DNA pool by Rep nickase domains was read by sequencing (1 h at 37 °C, 3 µM enzyme); the outer parts of the 90-letter strands are left off. Numbers give uncut DNA relative to the enzyme-free pool, as log2; more negative means more cut, near 0 not cut, and no call is made. Reads are scaled to the total; uncut strands gain when others are lost, and binding without cutting may add a little.

What was measured:
Experiment in all cases: uncleaved DNA left, log2 of reads against the no-enzyme library (log2 ratio); higher = less cleavage (more negative = more Rep cleavage of the k-mer); sequences stand for … in CTCGTCCG…ACCGGAGA
[1] = test system: T1, Rep nickase domain of Muscovy duck circovirus
T1 sequence (residues 1-111, tag not shown): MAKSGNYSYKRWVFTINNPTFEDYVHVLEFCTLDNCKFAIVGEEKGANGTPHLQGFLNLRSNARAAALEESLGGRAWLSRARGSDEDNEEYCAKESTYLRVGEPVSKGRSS
Description: (§1)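 A pool of 90-nt single-stranded DNAs with seven random bases just before the constant AC of the nick site (name = the seven bases) was cut by 3 µM recombinant His6-SUMO-tagged Rep nickase domain (300 nM DNA, 50 mM HEPES pH 8.0, 50 mM NaCl, 1 mM MnCl2, 1 h, 37 °C, three replicates). Uncut DNA was amplified and sequenced.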

[2] = test system: T2, Rep nickase domain of banana bunchy top virus
T2 sequence (residues 1-94, tag not shown): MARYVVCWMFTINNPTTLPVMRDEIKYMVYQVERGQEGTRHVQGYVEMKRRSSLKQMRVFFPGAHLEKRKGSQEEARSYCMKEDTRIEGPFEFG
Description: as §1

[3] = test system: T3, Rep nickase domain of cabbage leaf curl virus
T3 sequence (residues 1-116, tag not shown): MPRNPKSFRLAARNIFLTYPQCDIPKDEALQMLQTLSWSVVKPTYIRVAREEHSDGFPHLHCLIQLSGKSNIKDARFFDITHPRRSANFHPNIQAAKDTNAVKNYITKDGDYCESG
Description: as §1

[4] = test system: T4, Rep nickase domain of chickpea chlorotic dwarf virus
T4 sequence (residues 1-124, tag not shown): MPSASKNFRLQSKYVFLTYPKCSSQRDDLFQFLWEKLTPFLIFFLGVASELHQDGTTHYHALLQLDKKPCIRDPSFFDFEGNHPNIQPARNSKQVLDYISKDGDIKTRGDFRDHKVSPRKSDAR
Description: as §1

[5] = test system: T5, Rep nickase domain of faba bean necrotic yellows virus
T5 sequence (residues 1-98, tag not shown): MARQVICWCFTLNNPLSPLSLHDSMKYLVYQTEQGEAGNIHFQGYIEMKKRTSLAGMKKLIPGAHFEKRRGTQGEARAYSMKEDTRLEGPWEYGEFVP
Description: as §1

[6] = test system: T6, Rep nickase domain of maize striate mosaic virus
T6 sequence (residues 1-117, tag not shown): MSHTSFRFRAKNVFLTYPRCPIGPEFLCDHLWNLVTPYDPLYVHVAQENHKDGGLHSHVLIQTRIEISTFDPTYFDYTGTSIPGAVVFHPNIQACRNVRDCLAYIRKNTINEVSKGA
Description: as §1

[7] = test system: T7, Rep nickase domain of porcine circovirus 2
T7 sequence (residues 2-116, tag not shown): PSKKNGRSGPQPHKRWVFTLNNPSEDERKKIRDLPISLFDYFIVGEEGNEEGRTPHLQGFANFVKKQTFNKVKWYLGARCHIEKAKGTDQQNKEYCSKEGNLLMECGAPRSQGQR
Description: as §1

[8] = test system: T8, Rep nickase domain of tomato golden mosaic virus
T8 sequence (residues 1-124, tag not shown): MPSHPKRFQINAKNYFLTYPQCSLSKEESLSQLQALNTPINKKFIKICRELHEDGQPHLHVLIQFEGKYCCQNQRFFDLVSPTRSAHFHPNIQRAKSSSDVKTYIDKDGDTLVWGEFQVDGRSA
Description: as §1

[9] = test system: T9, Rep nickase domain of tomato yellow leaf curl virus
T9 sequence (residues 1-136, tag not shown): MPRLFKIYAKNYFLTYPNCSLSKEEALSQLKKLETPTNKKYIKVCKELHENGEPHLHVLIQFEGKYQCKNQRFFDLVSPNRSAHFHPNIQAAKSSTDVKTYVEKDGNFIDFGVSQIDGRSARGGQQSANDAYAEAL
Description: as §1

[10] = test system: T10, Rep nickase domain of wheat dwarf virus
T10 sequence (residues 1-137, tag not shown): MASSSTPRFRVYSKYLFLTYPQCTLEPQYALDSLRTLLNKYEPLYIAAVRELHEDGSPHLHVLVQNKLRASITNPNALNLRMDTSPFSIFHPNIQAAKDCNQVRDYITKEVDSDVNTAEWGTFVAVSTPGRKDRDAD
Description: as §1

| Sequence | uncleaved DNA left (log2) [1] | uncleaved DNA left (log2) [2] | uncleaved DNA left (log2) [3] | uncleaved DNA left (log2) [4] | uncleaved DNA left (log2) [5] | uncleaved DNA left (log2) [6] | uncleaved DNA left (log2) [7] | uncleaved DNA left (log2) [8] | uncleaved DNA left (log2) [9] | uncleaved DNA left (log2) [10] |
| --- | --- | --- | --- | --- | --- | --- | --- | --- | --- | --- |
| CTTTGAG | -0.0268 | 0.0579 | -0.833 | 0.262 | 0.0462 | -0.685 | 0.178 | 0.0287 | 0.167 | -0.121 |
| ACTGTTA | -0.124 | -0.192 | -0.295 | -0.292 | 0.000157 | 0.313 | -0.277 | 0.0156 | -0.144 | -0.132 |
| GCTACTA | -0.121 | -0.106 | -0.0881 | -0.686 | -0.0647 | 0.327 | -0.0739 | -0.0856 | -0.0601 | -0.00286 |
| CAATCGG | -0.00862 | -0.0397 | 0.372 | 1.15 | -0.00323 | 1.09 | 0.119 | 0.0117 | -0.0642 | -0.0487 |
| ACTACAT | 0.0535 | 0.12 | 0.0756 | -0.352 | -0.0461 | -0.113 | -0.997 | -0.0394 | 0.00241 | 0.138 |
| TACAGGA | 0.127 | 0.105 | 0.248 | 0.47 | 0.11 | -0.0817 | 0.24 | 0.196 | 0.00702 | 0.0462 |
| AGGTAAT | -0.256 | 0.0396 | 0.164 | 0.778 | -0.0642 | 1.49 | -3.38 | 0.0247 | -0.000601 | 0.0316 |
| ATTAGAT | 0.0044 | 0.119 | 0.337 | 1.23 | 0.102 | 1.35 | -0.0139 | 0.0976 | -0.0401 | 0.164 |
| TCTGCAA | -0.0333 | 0.0835 | -0.187 | -0.492 | 0.0396 | -1.03 | 0.0397 | -0.0865 | 0.0656 | 0.036 |
| TGGGCGT | 0.167 | 0.0516 | 0.638 | 1.32 | 0.148 | 1.14 | 0.234 | 0.115 | 0.108 | 0.249 |
| CCCGGCC | 0.0272 | -0.0433 | 0.0963 | 0.298 | 0.0392 | -0.354 | 0.167 | 0.0428 | -0.108 | 0.0476 |
| AATTTCC | -3.01 | -0.316 | -0.402 | -1.18 | -0.594 | -0.406 | -3.34 | -0.237 | -0.0082 | -0.13 |
| GATCGTT | 0.0259 | -0.0152 | 0.176 | -0.243 | -0.00395 | 0.769 | -1.41 | -0.0945 | -0.00376 | -0.0427 |
| GGGGTTC | 0.188 | 0.0529 | 0.785 | 1.71 | -0.0752 | 2.24 | 0.198 | 0.0341 | 0.0558 | 0.274 |
| TCTCTCA | -0.105 | -0.268 | -0.0315 | -0.94 | -0.13 | -0.316 | -0.061 | -0.146 | -0.153 | -0.202 |
| GTGAGAC | 0.191 | 0.166 | 0.593 | 1.22 | 0.164 | 2.03 | 0.218 | 0.116 | 0.179 | 0.229 |
| TAGATGA | 0.152 | 0.106 | 0.238 | 0.379 | 0.14 | 0.609 | -0.0612 | 0.0917 | 0.0412 | 0.0856 |
| TGACATG | 0.115 | -0.00566 | 0.136 | 0.887 | -0.0068 | 1.16 | 0.0953 | -0.105 | 0.0334 | 0.0187 |
| AACGCTT | 0.011 | -0.0917 | 0.0139 | -2.25 | 0.0503 | 1.13 | -0.564 | 0.0221 | -0.228 | 0.0123 |
| TACTACG | -0.0177 | 0.0105 | -0.952 | -1.39 | 0.0979 | -1.26 | -0.922 | -0.107 | 0.0595 | -0.0333 |
| CTCTGCA | 0.0378 | 0.0309 | -0.44 | -0.797 | -0.0434 | -1.1 | -0.0316 | -0.0674 | 0.0556 | 0.0305 |
| TCGTATA | -0.0379 | -0.0594 | -0.119 | -1.2 | -0.0853 | -0.42 | -0.599 | 0.0265 | -0.0531 | -0.163 |
| GGCGGGA | 0.0999 | 0.143 | 0.727 | 1.31 | 0.111 | 1.79 | 0.37 | 0.104 | 0.166 | 0.229 |
| CCGCCAT | -0.0538 | -0.0529 | 0.0317 | -0.395 | -0.162 | -0.159 | -0.107 | -0.089 | -0.198 | -0.112 |
| CTCGCGC | -0.0604 | -0.0685 | -0.781 | -0.729 | 0.00605 | -0.924 | 0.165 | -0.0327 | 0.0452 | -0.104 |
| TTCGTCA | 0.0294 | -0.000114 | 0.0984 | -0.768 | -0.092 | -0.361 | -0.0264 | -0.0184 | -0.0385 | 0.0167 |
| ATGTCCC | -0.108 | 0.00327 | 0.326 | 1.04 | -0.103 | 0.968 | -0.234 | 0.0273 | -0.133 | -0.026 |
| GTTAACA | 0.0843 | 0.029 | 0.271 | 0.773 | -0.143 | 1.82 | 0.0169 | 0.194 | 0.11 | 0.203 |
| GCTTTGA | 0.0429 | 0.0161 | 0.045 | 0.443 | -0.137 | -0.191 | 0.131 | 0.0576 | -0.0336 | 0.0193 |
| CGTCCGC | 0.0312 | 0.0531 | 0.0257 | 0.233 | 0.0575 | 0.239 | 0.0206 | -0.0288 | 0.185 | 0.028 |
